# Experimental data as given in PubChem BioAssay AID504466 (National Center for Advancing Translational Sciences (NCATS), 2011).
# The campaign covered roughly 330,000 compounds. About 4,200 (1.3%) were called active. Inconclusive means that the source gave no clear call. Such entries were picked first, then a sample of the others. Calls come from the whole dose curve; as a rule, active = well fitted activation curve with a large enough effect; inconclusive = small, poorly fitted or top-dose-only effect; inactive = no such curve, though single readings can be large or run the other way. Potencies of inconclusive entries are doubtful fits and often do not repeat.
# Test: qHTS screen for small molecules that induce genotoxicity in human embryonic kidney (HEK293T) cells expressing luciferase-tagged ELG1; note: nearly all actives have a fitted effect of over 60% in size; for activity change, positive = activation: % of control where 0% means no effect
# Settings: HEK293T ELG1-luciferase reporter, luminescence, 16 h; series mostly up to 46 µM
# Outline: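 Genotoxic stress is detected as increased luminescence from luciferase-tagged ELG1 in HEK293T cells, measured with ONE-Glo after a 16 hr treatment at 37 °C.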
# Potency is the fitted concentration of half-maximal effect; tags give direction and shape of the fitted curve.
SMILES,Potency,"activity change, positive = activation"
Cc1cccc(NC(=O)CSc2nc3ccccc3o2)c1,active: 1.46 µM,
COc1ccc(C=C2C(=O)c3ccccc3C2=O)cc1O,inactive,
COc1ccc(Cl)cc1NC(=O)CN(C)C(=O)c1cc2c(s1)CCCC2,inactive,
CC(=O)c1ccc(N=Nc2ccc(C)cc2)cc1,active: 0.461 µM,
COc1ccc(/C=C/C(=O)c2ccc(Cl)s2)cc1O,"inconclusive: 18.4 µM [activator, single point]",
Cc1ccc(C)c(S(=O)(=O)N2CCCCC2CCNC(=O)C(=O)NC2CCCC2)c1 (configuration not stated),"inconclusive: 20.6 µM [activator, single point]",
CCO[C@@H]1OC(C(=O)NC2CC2)=C[C@H](C2CC2)[C@H]1CCCO,inactive,
O=C(NCc1ccccn1)Nc1cccc(Cl)c1Cl,"inconclusive: 20.6 µM [activator, single point]",
COc1ccc(CCNC(=O)CSc2nc3[nH]ncc3c(=O)n2-c2ccc(C)c(Cl)c2)cc1OC,"inconclusive: 0.0046 µM [activator, full curve, poor fit]",
Clc1ccc(-c2csc(N3CCC(c4ccccc4)C3)n2)cc1 (configuration not stated),"inconclusive: 8.2 µM [activator, partial curve, poor fit]",
COC(=O)CSc1nc2ccccn2c(=O)c1C=O,"inconclusive: 23.1 µM [activator, partial curve, poor fit]",
O=C(Nc1ccccc1)Nc1ccc(F)cc1F,"inconclusive: 11.6 µM [activator, partial curve, poor fit]",
Cc1ccc(CONC(=O)c2ccccc2)cc1,"inconclusive: 8.2 µM [activator, partial curve, poor fit]",
O=C(CCc1ccccc1)Nc1ccccc1F,"inconclusive: 5.17 µM [activator, single point]",
CC(=O)N(C)c1ccc(N=Nc2c(C)[nH]n(C(N)=S)c2=O)cc1,"inconclusive: 3.26 µM [activator, partial curve]",
O=C(CSc1nnc(NC(=O)c2ccccc2F)s1)NCC1CCCO1 (configuration not stated),"inconclusive: 11.6 µM [activator, partial curve]",
CC(c1ccccc1)C1C(C#N)=C(N)OC2=C1C(=O)CCC2 (configuration not stated),inactive,
O=C(CSc1nnc2ccccn12)N1CCc2ccccc21,"inconclusive: 12.6 µM [activator, partial curve]",
N=C1C(c2nc3ccccc3s2)=C(O)CN1NC(=O)c1c[nH]c2ccccc12,"inconclusive: 29.1 µM [activator, partial curve, poor fit]",
Cc1ccc(CNC(=O)c2nnn(CC(=O)Nc3cccc(C)c3C)c2N)cc1,,inactive: 7.74% [at 9.26 µM]
O=C(COC(=O)c1c2c(nc3ccccc13)CCCC2)Nc1ccc2c(c1)OCO2,inactive,
CC(=O)c1cnc2c(-c3cccc(Br)c3)cnn2c1C,"inconclusive: 14.6 µM [activator, partial curve, poor fit]",
COc1ccccc1NC(=O)N1CCC(c2nc3cc(C)c(C)cc3[nH]2)CC1,"inconclusive: 4.11 µM [activator, full curve, poor fit]",
N#Cc1c(NC(=O)CCCC(=O)O)sc2c1CCCCC2,"inconclusive: 1.64 µM [activator, full curve, poor fit]",

SMILES,Potency,"activity change, positive = activation"
O=C(N/N=C\c1ccc(F)cc1)c1ccc(F)cc1,"inconclusive: 13 µM [activator, partial curve, poor fit]",
Cc1ccc2nc(-c3ccc(NC(=O)c4cccnc4)cc3)oc2c1,"inconclusive: 2.59 µM [activator, partial curve, poor fit]",
COc1ccc(/C=C(\C#N)C(=O)NCc2cccs2)cc1OC,inactive,
COc1ccc(N2CC(C(=O)Nc3nc(-c4ccccc4)c(C(C)=O)s3)CC2=O)c(OC)c1 (configuration not stated),inactive,
Cn1nc(C(=O)NC2CCCCC2)c2c1-c1ccccc1SC2,"inconclusive: 23.1 µM [activator, partial curve]",
CCOc1ccc(N/C=C/C(=O)c2ccc3ccccc3c2)c([N+](=O)[O-])c1,inactive,
O=C(CCN1C(=O)/C(=C\C=C\c2ccccc2)SC1=S)Nc1cccc(C(=O)O)c1,"inconclusive: 16.4 µM [activator, partial curve]",
O=C(Cn1cc(C(F)(F)F)ccc1=O)NCc1ccc(F)cc1,"inconclusive: 18.3 µM [activator, partial curve, poor fit]",
COc1ccc(C(=O)Nc2ccc(N3CCCC3)cc2)cc1OC,"inconclusive: 20.6 µM [activator, single point]",
C=CCN=C1NN=C(c2cc(C)n(CCOC)c2C)CS1,inactive,
C=CCNc1nc2c3ccccc3n(C(C)=O)c2s1,"inconclusive: 29.1 µM [activator, partial curve, poor fit]",
CCOc1ccc(N/C=C/C(=O)c2ccc(OC)cc2)c([N+](=O)[O-])c1,"inconclusive: 1.46 µM [activator, full curve, poor fit]",
CCOc1ccc(C2/C(=C(\O)c3ccc4c(c3)OCCO4)C(=O)C(=O)N2CCN2CCOCC2)cc1OCC (configuration not stated),inactive,
Cc1cc(NC(=O)NC(=O)c2cccc(OC(F)(F)C(F)F)c2)n[nH]1,"inconclusive: 4.11 µM [activator, full curve]",
COc1ccc(/C=C/C(=O)c2ccc(O)cc2)cc1,"inconclusive: 23.1 µM [activator, single point]",
C/C(=N\NC(=O)c1cc(Br)ccc1O)c1ccccn1,active: 20.6 µM,
CCOc1ccc(CC(=O)Nc2ccc(S(=O)(=O)N3CCCC3)cc2)cc1,inactive,
COC(=O)c1ccc(C(=O)N=c2sccn2C)cc1,"inconclusive: 18.3 µM [activator, partial curve]",
Cc1nc2ccccc2c(=O)n1/N=C/c1ccccc1Cl,"inconclusive: 18.3 µM [activator, partial curve, poor fit]",
CCC(=O)NCCc1nc2cc(NC(=O)c3ccc(Cl)cc3)ccc2n1C,"inconclusive: 1.83 µM [activator, full curve, poor fit]",
Cc1ncoc1C(=O)Nc1ccc2c(c1)OCCO2,"inconclusive: 8.2 µM [activator, partial curve, poor fit]",
O=C(CCCOc1ccccc1)N1CCc2ccccc2C1,active: 20.6 µM,
O=c1cc[nH]c2c1ccc1cccnc12,"inconclusive: 32.6 µM [activator, partial curve, poor fit]",
CC(C)(C)c1ccc(-c2nc3cc(N)ccc3o2)cc1,active: 1.3 µM,

SMILES,Potency,"activity change, positive = activation"
CCCN(CC(=O)Nc1ccccc1OC)C(=O)CCC(=O)c1ccc(Cl)s1,inactive,
O=C(CSc1nc(-c2ccccc2)cs1)NCc1ccco1,active: 23.1 µM,
COc1cccc(/C=N/NC(=O)c2c(C)nc3ccc(Br)cn23)c1O,inactive,
Fc1ccccc1-c1csc(-c2cccnc2)n1,"inconclusive: 20.6 µM [activator, partial curve, poor fit]",
Cc1nccc(-c2ccc3c(c2)OCO3)n1,inactive,
CN(C)c1ccc(/C=C/C(=O)c2ccccc2O)cc1,"inconclusive: 4.11 µM [activator, single point]",
CCN(CC)c1ccc(NC(=S)NC(=O)c2ccco2)cc1,"inconclusive: 6.51 µM [activator, partial curve]",
CCCn1c(N)c(C(=O)CSc2nnc(-c3ccco3)n2Cc2ccccc2)c(=O)[nH]c1=O,inactive,
O=C(COc1ccccc1Cl)c1ccc2c(c1)CCCC2,"inconclusive: 8.2 µM [activator, partial curve]",
Cc1ccc(C(=O)Nc2ccc3c(c2)OCO3)cc1,active: 0.461 µM,
CC(C)(C)c1ccc(/C=C/C(=O)NC2=NCCS2)cc1,"inconclusive: 0.411 µM [activator, full curve]",
CC(=O)Nc1ccc2nc(-c3cccs3)[nH]c2c1,"inconclusive: 16.4 µM [activator, partial curve]",
COc1ccc(C2=Nn3c(nnc3-c3cc(C)[nH]n3)SC2)cc1,active: 20.6 µM,
Cc1cc(C)c(S(=O)(=O)c2ccccc2)c(OC(=O)c2ccc(Cl)cc2Cl)n1,inactive,
CC(C)(C)NC(=O)Nc1ccc2nccnc2c1,"inconclusive: 20.6 µM [activator, partial curve, poor fit]",
CCOc1ccc(NCCC(=O)c2ccc3c(c2)OCO3)cc1,"inconclusive: 29.1 µM [activator, single point]",
COc1ccc(-c2cc(C(=O)NCc3ccco3)no2)cc1OC,"inconclusive: 11.2 µM [activator, partial curve, poor fit]",
Clc1ccc2nc(-c3ccccc3)cn2c1,active: 0.92 µM,
Cc1ccccc1OCCCC(=O)Nc1ccc(Br)cc1,"inconclusive: 20.6 µM [activator, partial curve, poor fit]",
CCc1ccc(C(=O)Cn2ccsc2=N)cc1,"inconclusive: 1.83 µM [activator, full curve]",
COc1cc2ccccc2cc1C(=O)Nc1nc(C)c(C(C)=O)s1,"inconclusive: 8.2 µM [activator, partial curve]",
CCC(=O)Nc1ccc(-c2nnc(-c3ccccc3)o2)cc1,"inconclusive: 8.2 µM [activator, partial curve]",
O=C(NCc1cccs1)c1nc(-c2cccs2)no1,"inconclusive: 14.6 µM [activator, partial curve, poor fit]",
CCN1CCCC1CNC(=O)c1ccc2c(c1)NC(=O)/C(=C\c1ccc(C)cc1)S2 (configuration not stated),"inconclusive: 18.3 µM [activator, partial curve, poor fit]",
